# According to PubChem BioAssay AID686971 (National Center for Advancing Translational Sciences (NCATS), 2013):
# Out of some 360,000 compounds screened, about 7,500 (2.1%) were called active. Inconclusive results, whose numbers are uncertain, are shown with a selection of clear calls. The call rests on the fitted dose curve; in most records, active means well fitted cell-killing curve with a large enough effect; inconclusive means small, poorly fitted or top-dose-only effect, or effect the other way, or another doubt; inactive means no such curve, though single readings can be large or run the other way. Potencies of inconclusive entries are left out as doubtful fits.
# Test: qHTS for induction of synthetic lethality in tumor cells producing 2HG: qHTS for the HT-1080-IDH1KD cell line;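 on activity, negative = toxicity: 0% = DMSO wells and -100% = cell-free medium wells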
# Details: HT-1080 IDH1 knockdown viability, ATP luminescence, 48 h; activity, negative = toxicity: at 46.1 µM (top of the series) unless noted
# Outline: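 Cytotoxicity counter-line: IDH1KD HT-1080, 48 h, CellTiter-Glo. Curves classed by r2, magnitude and activity.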
# Potency means the concentration at half of the fitted maximal effect; tags describe the fitted curve by direction and shape.
SMILES,Potency,"activity, negative = toxicity"
COc1ccc2c(C)nc(Nc3nc(C)cc(C)n3)nc2c1,active: 0.891 µM,
CCN1CCN(Cc2ccc(NC(=O)c3cc(NC(=O)c4cncc(-c5cccs5)c4)cc(OC)c3)cc2C(F)(F)F)CC1,active: 18.4 µM,
Cc1cccc(C(=O)Nc2scc(-c3ccc(Br)cc3)c2C(=O)O)c1,"inconclusive [cytotoxic, single point]",
CC(=O)c1cccc(NC(=O)C(=O)Nc2cccc3ccccc23)c1,inactive,
COCCCNC(=O)C[C@H]1C[C@H](C(=O)N2CCCCC2)[C@@]2(CCc3ccccc3)c3[nH]c4cc(-c5ccco5)ccc4c3CCN2C1=O,"inconclusive [cytotoxic, single point]",
Cc1ccccc1C(=O)N[C@H](C(=O)OCC(=O)NC1CC1)C(C)C,inactive,
CCNC(=S)NNC(=O)c1cc(-c2cccnc2)nc2ccccc12,inactive,
CCOC(=O)c1ccc(NC(=O)Cn2c(C)nc3c(sc(=S)n3CC)c2=O)cc1,inactive,
Cc1ccccc1C[n+]1cccc2ccccc21,inactive,
CCn1cc(C(=O)NCCCO)c(=O)c2cc(F)c(N3CCN(C)CC3)cc21,inactive,
C[C@@]12C(C[C@H](O)[C@@]34C[C@@H](CCC13)[C@@H](CO)C4=O)[C@](C)(C(=O)O)CC[C@@H]2O (stereo partly drawn),"inconclusive [cytotoxic, single point]",
N#Cc1ccccc1OCC(=O)Nc1nc(-c2ccccn2)cs1,"inconclusive [cytotoxic, partial curve]",
Cc1cc(C)c(NC(=O)CS(=O)CC(=O)Nc2ccc(N3CCOCC3)cc2)c(C)c1 (stereo not drawn),inactive,
CCN(CC)CCNC(=S)Nc1ccc2nc(N3CCN(CC)CC3)cc(C)c2c1,"inconclusive [cytotoxic, single point]",
Cc1ccc(NC(=O)c2ccc(C#CC3(O)CCCCC3)cc2)cc1C,inactive,
COc1cc(-c2nc3cnccn3c2Nc2ccccc2)ccc1O,inactive,
CCOc1ccc2[nH]cc(C(=O)NCCCN3CCOCC3)c(=O)c2c1,inactive,
COc1ccc(-n2c(COc3cccc4ccccc34)nnc2SCC#N)cc1,"inconclusive [cytotoxic, single point]",
CS(=O)(=O)c1nc(-c2ccccc2)cc(-c2ccccc2)c1C#N,"inconclusive [cytotoxic, single point]",
O=C(CSc1nnc(CCCN2C(=O)c3cccc4cccc(c34)C2=O)n1-c1ccccc1)N1CCN(CCO)CC1,inactive,
O=C1C=CC(=O)N1N(c1ccccc1)c1ccccc1,"inconclusive [cytotoxic, partial curve]",
CCOC(=O)[C@@H]1[C@H]2COc3ccccc3[C@H]2N2C(=O)N(c3ccc(Cl)cc3)C(=O)[C@@]12C,inactive,
COc1ccc(-c2nc3ccccn3c2Cl)cc1,"inconclusive [cytotoxic, single point]",
Cc1ccc(C(=O)N2c3ccccc3NC(=O)C2C)cc1 (stereo not drawn),inactive,

SMILES,Potency,"activity, negative = toxicity"
CCOc1ccc(S(=O)(=O)Nc2ccc(C(=O)N/N=C(\C)c3ccc(-n4ccnc4)cc3)cc2)cc1,"inconclusive [cytotoxic, single point]",
Cc1cc(NC(=O)CCC(=O)N(CC(=O)NCC2CCCO2)c2ccc(C(C)C)cc2)no1 (stereo not drawn),inactive,
O=C(CC(=O)c1cccs1)c1ccncc1,inactive,
CC(Sc1nnc(-c2ccncc2)n1C)C(=O)NCC(=O)Nc1ccc(F)c(F)c1F (stereo not drawn),inactive,
O=C(NCc1ccco1)c1cc(S(=O)(=O)N2CCOCC2)c(Cl)cc1Cl,inactive,
O=C(CCn1c(=S)[nH]c2cc3c(cc2c1=O)OCO3)NCCc1ccccc1Cl,inactive,
COc1ccc(N2C(=O)CC(Sc3nnnn3-c3ccc(F)cc3)C2=O)cc1 (stereo not drawn),active: 4.11 µM,
O=C(COc1ccc(Br)cc1CNC1CCCC1)Nc1ccccc1,"inconclusive [cytotoxic, single point]",
CCCCNC(=O)N(O)C1N(/N=C/c2ccccc2O)C(=S)SC1(C)C (stereo not drawn),"inconclusive [cytotoxic, single point]",
O=C(Nc1ccc(S(=O)(=O)N2CCCCCC2)cc1)c1c(F)cccc1F,"inconclusive [cytotoxic, single point]",
CSc1cc(-c2ccccc2)n(Cc2ccc(Cl)cc2Cl)c(=O)c1C#N,,inconclusive: 31.2%
COc1ccccc1C(=O)Nc1cccc2nc(C)ccc12,,inconclusive: 32.6%
Cc1cc(N2CCCC2=O)cc(C)c1S(=O)(=O)NCCOc1ccc(C(C)(C)C)cc1,"inconclusive [cytotoxic, partial curve]",
N#Cc1cc2c(=O)n3ccccc3nc2n(Cc2ccco2)c1=NC(=O)c1ccco1,"inconclusive [cytotoxic, partial curve]",
O=C(NC(Nc1nc2ccc([N+](=O)[O-])cc2s1)(C(F)(F)F)C(F)(F)F)c1ccccc1,active: 5.17 µM,
N#CC1=C(N)N(c2ccccc2)C(c2ccccc2)C1(C#N)C#N (stereo not drawn),"inconclusive [cytotoxic, partial curve]",
CC(C)C(CCNC1CCN(C)CC1)c1ccc(Cl)cc1 (stereo not drawn),"inconclusive [cytotoxic, single point]",
O/N=C(\c1ccc(Cl)cc1)c1cc2ccccc2o1,"inconclusive [cytotoxic, single point]",
COc1ccc2oc(C(=O)Nc3nc4ccc(S(C)(=O)=O)cc4s3)c(C)c2c1,inactive,
CCOc1ccc(NC(=O)CSc2nnc(CCNC(=O)c3ccc(OC)cc3)n2C)cc1,inactive,
CCc1ccn2cc(-c3cc(-c4ccccc4)no3)nc2c1,"inconclusive [cytotoxic, partial curve, poor fit]",
O=[N+]([O-])c1ccc(OC(F)F)c(/C=N/n2cnnc2)c1,"inconclusive [cytotoxic, partial curve]",
Cc1cc(C)c2nc(N3CCC(C(=O)NCC4CCCO4)CC3)sc2c1 (stereo not drawn),inactive,
Oc1c(CN2CCCCC2)cc(COCc2ccccc2)c2cccnc12,active: 2.91 µM,
